# Whole data set: some 33,000 sequences, median “E-score (-0.5 to 0.5)” near -0.04, cut for the highest 2% near 0.36. The list shows a part of the results.
# Biological target: T1, Hmlalpha2 (UniProt P0CY09)
# T1 sequence: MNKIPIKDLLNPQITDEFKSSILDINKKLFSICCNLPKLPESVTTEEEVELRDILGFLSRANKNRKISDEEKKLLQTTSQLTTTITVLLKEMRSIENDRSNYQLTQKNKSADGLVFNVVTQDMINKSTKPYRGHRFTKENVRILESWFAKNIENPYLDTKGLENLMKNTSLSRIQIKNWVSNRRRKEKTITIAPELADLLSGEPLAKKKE
# Assay: PBM E-score (8-mer binding enrichment) (E-score (-0.5 to 0.5)); higher = stronger / more preferred TF binding; most listed sequences are background and not binding sites
# Settings: protein concentration: 200 nM; construct: GST-full length
# Procedure, shortened: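 Full-length yeast transcription factors or their DNA-binding domains, GST-tagged and expressed with PURExpress, were applied at about 100-200 nM to universal all-10-mer Agilent arrays. These arrays had been made double-stranded by primer extension on fresh or once-stripped slides. Detection used fluorescent anti-GST, normalisation used masliner, and E-scores for ungapped eight-base words pooled with reverse complements came from the Universal PBM Analysis Suite.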
row,Sequence,PBM E-score
1,TATTAGCA,0.0301
2,GACAGCCC,-0.261
3,CCGTAGGC,-0.0439
4,ACATGCAC,0.36
5,CTGATTAC,0.369
6,GGATAGTA,0.0947
7,GTCACCGA,-0.0552
8,CTCGACAC,0.237
9,CTATTGGA,-0.0573
10,CTAGGGAA,-0.17
11,AGTCTCAT,-0.176
12,CTGTATTA,0.191
13,ACCGCCCG,-0.258
14,CCCAGTTA,-0.186
15,CACATGTA,0.416
16,CGTTGGTA,0.3
17,ATAATATC,0.142
18,CCCAGTGA,-0.249
19,GACTTTGA,-0.0221
20,AAGTCGGG,-0.17
21,CGCAACAC,0.161
22,GCGCAACC,-0.228
23,AATTATTA,0.293
24,CTCCCCAA,-0.0936
25,CCGATATA,-0.0244

row,Sequence,PBM E-score
1,GTTCCCAA,-0.0581
2,CGCTAGCC,-0.269
3,CTCCTCAA,-0.264
4,CCTTTTCG,-0.0594
5,ACGTCTAA,0.103
6,CTTAGGCC,-0.245
7,AGTTGCCG,-0.0501
8,CCGTTCAG,-0.333
9,ATCTAAAG,0.147
10,CACGGTAA,0.115
11,GCGCATAC,0.127
12,CATTACGG,-0.0532
13,GGTCTAGA,-0.162
14,AAGAGTGG,-0.248
15,GATCCCCC,-0.293
16,GGAACCAA,-0.028
17,GAACGTTA,0.0373
18,ACACAGGC,0.29
19,GGATACTA,-0.0326
20,TAACGCAA,0.34
21,CCGCGTAG,0.294
22,GCTAAGCC,-0.218
23,GATGATGC,-0.199
24,GTGCCATA,-0.096
25,CCGTCCAG,-0.255

row,Sequence,PBM E-score
1,AACGCGCG,0.274
2,CTCCGGAC,-0.134
3,GGTCTCGA,0.0586
4,GACGGTCA,-0.196
5,ACCGAGGC,-0.359
6,GGGATACA,0.0798
7,GGCAGCGA,-0.24
8,ATGGAAAT,0.154
9,CCCCTAGA,-0.328
10,AGAAATCA,0.129
11,CCACACAC,0.0345
12,CGACGGAA,-0.11
13,GCGAGGAC,-0.35
14,GTCACAAC,0.14
15,AGTTCATA,-0.0382
16,CTTGCTTC,0.0506
17,AAGCACCG,-0.224
18,ATAGGGAT,0.00772
19,GCGCCTGA,-0.0712
20,CACTGGAC,0.0737
21,CTCTGGAA,-0.196
22,CCTCGGCA,-0.138
23,ACAACAAA,0.284
24,TCCCGGGA,-0.237
25,ACTACTTA,0.0652

row,Sequence,PBM E-score
1,CCGAGATA,-0.0216
2,AAACCGCG,0.0553
3,CGAGCAAA,-0.102
4,GGCCAGAA,-0.0427
5,CGCTTCGA,-0.126
6,CAGACGAA,0.121
7,GTCATTAA,0.169
8,GACAGATA,0.119
9,CAGCTACG,0.0373
10,CATGCTTC,0.18
11,CGCGGTCC,-0.202
12,AAATGAAC,0.177
13,CAACGGCA,-0.019
14,GGCAGTTA,0.0486
15,GATCGCAA,-0.0803
16,GCCACGTA,0.202
17,CTATCTGC,-0.27
18,GGGAAATA,-0.0445
19,CCCGCAGC,-0.254
20,GAACGTCC,-0.031
21,AACTATGA,0.0334
22,TAGAAAAA,0.106
23,ATGGTAAC,0.223
24,CCATCGAC,-0.234
25,ATCGATAC,0.0838

row,Sequence,PBM E-score
1,AGGATAAC,-0.0626
2,ACTTAGTG,0.0328
3,AGGCCATA,-0.303
4,AGTGATGG,-0.127
5,CACCTGGG,-0.191
6,AGCCACGA,-0.159
7,GTTGGTTA,0.234
8,AGTTTACG,0.278
9,AGTCTTAT,-0.0259
10,CTACGCAA,0.28
11,CCTAGCAG,-0.215
12,CAATGATA,0.0661
13,ATTCTTCG,0.0234
14,CCTCACAG,-0.09
15,GTTTGGTA,0.124
16,AGTTCACC,0.0459
17,CGTGATAA,0.211
18,GAGGCCAC,-0.0131
19,CTGCATAA,0.128
20,AAAGCCTT,-0.211
21,GTGGCCCA,-0.191
22,AGGTAATA,0.139
23,ATCCCTCG,-0.182
24,AGGCCACA,-0.166
25,TCCCCAAA,-0.0725

row,Sequence,PBM E-score
1,AATACAGC,0.0849
2,CTGATCGA,-0.154
3,CAAAAGCC,-0.172
4,CGATTGTC,0.11
5,AGGTCGTG,0.084
6,GAAGGTAC,0.0117
7,ACTTCATC,-0.116
8,CCGCGGCG,-0.249
9,GACGCCTA,-0.207
10,CCAGTGAA,-0.193
11,AAGACTCG,-0.124
12,CAAGACCC,-0.124
13,CAGCGCAG,-0.0959
14,CACGCTGA,0.0967
15,AGCACAAC,0.175
16,ACCGAACT,-0.121
17,CTGGTTTC,-0.195
18,AAGGCTGA,-0.209
19,AAATTGTG,0.0827
20,AAGAACAC,0.343
21,CAGTGCAC,-0.229
22,AAAAACAC,0.291
23,ACCTGACC,-0.165
24,GACCCCAC,-0.192
25,GAGAACCC,-0.337

row,Sequence,PBM E-score
1,GGTCGTGA,-0.1
2,ATACTTTG,0.125
3,TCAATGGA,-0.0655
4,CTCTTATA,0.0306
5,AATTATCT,-0.0497
6,AGATGCAG,0.0314
7,GTAGCGTA,0.066
8,AGTGTGCA,0.113
9,CTGGCGGC,-0.239
10,ACGTTGAT,0.194
11,CAAGACGA,0.0184
12,CATAGGTA,0.244
13,ACAGCCCA,0.0329
14,ATTTGAGC,-0.00795
15,CCGACCGG,-0.275
16,CGATGCAA,-0.144
17,ATGACATA,0.324
18,ATTCGATG,0.0784
19,ATCGCTCA,-0.129
20,AGCCATGA,-0.116
21,AACATTTA,0.242
22,GGGAGCCC,-0.334
23,TAACTTCA,0.133
24,AAAGAACA,0.283
25,CTGTTGTA,0.253

row,Sequence,PBM E-score
1,CAGATTAG,-0.131
2,GACAACAA,0.244
3,AGTGAAGA,-0.0801
4,AATTTTCC,0.0164
5,GAGTGCAC,-0.155
6,AGAGATAT,0.0274
7,AGCGGAAG,-0.194
8,CGGGAAAA,0.0469
9,CCTATAAA,-0.158
10,GCCGGCGA,-0.285
11,ATTTTGCA,0.162
12,GACCGGCC,-0.264
13,AGCCGTAT,-0.0624
14,CCAGTGCC,-0.265
15,ACGCAGCC,0.224
16,AAAAGCCG,-0.159
17,AAATTAGT,0.115
18,AATCAAAA,0.0538
19,CCGCGCAC,-0.178
20,ACGTAGTC,0.0592
21,CAATTAAC,0.289
22,CCCGCCGG,-0.287
23,GAGGCAGA,-0.265
24,CCAGTACA,0.197
25,ATCTTGAC,-0.098

row,Sequence,PBM E-score
1,AGGGGTTC,-0.344
2,AATTGGCA,-0.0269
3,GGTCCAGA,-0.0593
4,CGTGAATC,0.0398
5,GTTCCGCA,-0.15
6,AGGTGGAC,-0.142
7,GAACGGTA,0.0762
8,AACGTACG,0.186
9,ACGTGAAT,0.21
10,ACTGCCTG,-0.0553
11,CGTCTACC,-0.0439
12,GCGGCTAC,0.0144
13,ACGATGCG,0.119
14,AAGTAGAT,0.0114
15,CGCTCACG,-0.0819
16,ATAAAATA,0.269
17,CCGCCCCG,-0.252
18,AAACGTCC,-0.115
19,GTGTTCGA,0.187

# Reference: the supplement of paper PMC3334620
